Assay results reported in the supplement of paper PMC7266297.
Some of the results follow. Single values are uncertain, as repeats are few or missing.

Experiments:
[1] = tested on: KB-3-1; test: growth inhibition relative to DMSO control (SRB); cervical cancer cells: KB-3-1 is the parent and KB-V1 overexpresses MDR1; SRB is the sulforhodamine B stain; higher = more growth inhibition; details: 1 µM; 72 h
[2] = tested on: KB-V1; test: as above; details: 1 µM; 72 h
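Also: Read-out is SRB optical density at 490 nm, with the control being wells given 0.5% DMSO vehicle, and compound added one day after cells were plated.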

SMILES | growth inhibition [1] [%] | growth inhibition [2] [%]
Nc1ccc(C(=O)O)c(O)c1 [Sodium 4-Aminosalicylate] | < 0 | < 0
CC(C)c1noc(N2CCC(COc3ccc(-c4ccc(S(C)(=O)=O)cc4)nc3)CC2)n1 | < 0 | 51.4
C[C@H](CS)C(=O)N1CCC[C@H]1C(=O)O [Captopril] | 23.8 | 22.3
O=C(NS(=O)(=O)c1ccc(Br)s1)c1ccc(Cl)cc1Cl [Tasisulam] | < 0 | < 0
Cc1cnc(-c2cc(N3CCN(C(=O)CCS(C)(=O)=O)CC3)ncc2Cl)c(C)c1 | 11.4 | 45.6
Cc1ccc(C(=O)Nc2cccc(C(F)(F)F)c2)cc1Nc1nc(-c2cccnc2)nc2c1cnn2C | 8.14 | 10.3
C=CC(=O)Nc1ccc2ncnc(Nc3cccc(Br)c3)c2c1 | 5.13 | 29.5
Cc1onc(-c2ccccc2)c1-c1ccc(S(N)(=O)=O)cc1 [Valdecoxib] | 23 | 7.06
CN(C)CCc1c[nH]c2ccc(Cn3cncn3)cc12 [Rizatriptan Benzoate] | 27.1 | 14.1
COc1ccc(-n2nc(C(N)=O)c3c2C(=O)N(c2ccc(N4CCCCC4=O)cc2)CC3)cc1 [Apixaban] | 29.9 | 14.7
CC(C)NCC(O)c1ccc(NS(C)(=O)=O)cc1 (stereo not drawn) [Sotalol] | 28.7 | 8.51
CC(=O)Nc1ccc(NC(=S)NC(=O)c2ccc(C(C)(C)C)cc2)cc1 [Tenovin-1] | 39.6 | 3.09
COc1ccccc1N1CCN(CC(O)COc2cccc3ccccc23)CC1 (stereo not drawn) [Naftopidil] | < 0 | 25.2
COc1cc(CCc2cc(NC(=O)c3ccc(N4CC(C)NC(C)C4)cc3)n[nH]2)cc(OC)c1 (stereo not drawn) | 32.7 | 41
